The campaign covered roughly 150,000 compounds. About 540 (0.36%) showed an effect of 50% or more. The list shows a part of the results.

This experiment concerns Plasmodium falciparum. Put plainly: Primary screen in NF54 nanoGlo assay, in single point, at 2uM, 72h; a lower Z score goes with more inhibition. The class given is functional, Erythrocyte. The note with it: timepoint 72 hour.
For `CCc1nc(COc2ccc(C(=O)NCCn3ccnc3)cc2)no1`, the “% Inhibition” value came to 4% and the Z score was -0.39.
Regarding `CN1CCO[C@H](C(=O)Nc2ccccc2N(C)C2CCCC2)C1`, the “% Inhibition” value is given as 10% and the Z score is -1.2.
The matching figures for `O=C(CNCc1ccco1)Nc1ncc(Cc2cc(Cl)cc(Cl)c2)s1`: -16% and 2.17.
As to `CCN(C[C@H]1COc2ccccc2O1)C(=O)NCc1csc(C)n1`, the “% Inhibition” value is given as -12% and the Z score was determined as 1.85.
In the same order, the values of `CCO[C@H]1COC[C@@H]1NC(=O)CCn1cc(C)cn1` are -6% and 0.58.
On to `CN(Cc1ccc(-c2ccccc2)cc1)C(=O)c1cnc2c(cnn2C)c1O`, for which the “% Inhibition” value is recorded as -10% and the Z score is given as 1.47.
In the case of `Cc1cc(CN2CCCC[C@@H]2Cn2nc(C)nc2C)on1`, the “% Inhibition” value was -12% and the Z score is listed as 1.59.
In the same order, the values of `CS(=O)(=O)N1CCC(NC(=O)c2occc2-c2ccccc2)CC1` are 6% and -0.68.
The matching figures for `CCOC(=O)c1nn[nH]c1[C@@H]1CCCN1C(=O)c1c(C)nsc1C`: -12% and 1.29.
In the same order, the values of `COc1ccc(C(=O)N2CC(C(=O)O)CCC2c2ccccc2)cc1` (stereo not given) are 35% and -1.17.
On to `CC[C@@H](COc1ccccc1)NC(=O)CC1CCNCC1`, for which the “% Inhibition” value was determined as 9% and the Z score was -1.66.
For the compound `CC(C)NC(=O)Nc1ccc(N(C)C)c(CN(C(=O)c2ccccc2Cl)[C@@H](C)C(C)C)c1`, the “% Inhibition” value is given as -7% and the Z score is on record as 1.29.
In the case of `Cc1cc(C)cc(OCc2nnc(C(=O)Nc3cccc(C(=O)NC4CCCC4)c3)s2)c1`, the “% Inhibition” value is listed as -21% and the Z score amounted to 2.13.
The matching figures for `CN1c2cc(Cl)ccc2C(=O)NC12CCN(C(=O)Nc1ccc(F)cc1F)CC2`: -10% and 1.28.
`CCOC(=O)C1CCN(C(=O)c2snc3c(=O)n(C)c(=O)[nH]c23)CC1`: the “% Inhibition” value was -8% and the Z score amounted to 1.25.
On to `COc1ccc(-c2noc(Cn3c(=O)c4ccccc4n(CC(=O)Nc4cc(Cl)ccc4C)c3=O)n2)cc1`, for which the “% Inhibition” value turned out to be 31% and the Z score is recorded as -0.5.
In the same order, the values of `CCOc1ccc(NC(=O)CCc2nc(N3CCOCC3)c3c(C)noc3n2)cc1` are -5% and 0.81.
The matching figures for `CC(C)[C@@H](C(=O)NCCCOCCc1ccccc1)N1CCCS1(=O)=O`: -8% and 0.92.
Take `O=C1CCCc2cc(C(=O)N[C@H]3CCOC34CCOCC4)ccc2N1`: the “% Inhibition” value is reported as -2% and the Z score is given as 0.29.
`Cn1c(C(=O)N2CCNC(=O)[C@@H]2CCO)cc2cccc(Cl)c21`: the “% Inhibition” value is given as -17% and the Z score is on record as 2.87.
The matching figures for `O=C(O)c1ccc2[nH]c3c(c2c1)CCC3`: 2% and -0.25.
On to `CCCOc1ccc(OCC(=O)NC2CCN(C(=O)c3ccc(OC)cc3OC)CC2)cc1`, for which the “% Inhibition” value was -7% and the Z score was found to be 0.93.
On to `c1ccc(O[C@@H]2CCN(c3nnc(C4CC4)n3CC3CC3)C2)cc1`, for which the “% Inhibition” value is listed as -12% and the Z score is 2.38.
In the same order, the values of `Cc1nn(-c2nnn[nH]2)c(C)c1-c1cc(NCc2ccccn2)nc2[nH]ccc12` are -2% and 0.38.
In the same order, the values of `O=C(Cc1ccccc1)N1CCc2nc(N3CCCCC3)nc(Oc3ccc(F)cc3)c2C1` are -5% and 0.52.
On to `COc1cc2c(cc1OC)[C@H](CCc1ccccc1)NCC2`, for which the “% Inhibition” value is listed as -10% and the Z score was found to be 1.3.
The matching figures for `CC(CNC(=O)NC1CCOC1C)c1ccc(F)c(F)c1` (stereo not given): -8% and 1.03.
As to `COCc1ccccc1C(=O)O[C@H]1CC[C@H](NC(=O)OC(C)(C)C)CC1`, the “% Inhibition” value stood at 2% and the Z score is listed as -0.26.
In the same order, the values of `Cc1cc2ccccc2n1CC(=O)NOCc1ccccc1` are 6% and -0.92.
`Fc1ccc(-c2nc(C3CCCCC3)[nH]c2-c2ccc(F)cc2)cc1`: the “% Inhibition” value is listed as -9% and the Z score is given as 1.
As to `O=C1NCC(=O)N2CCN(C(=O)c3ccc(Oc4ccccc4)o3)C[C@@H]12`, the “% Inhibition” value is reported as -24% and the Z score worked out at 3.18.
As for `O=C(Nc1nncs1)N(Cc1cc(F)ccc1F)C1CCCC1`, the “% Inhibition” value is -9% and the Z score was determined as 1.42.
With `Cc1cc(C)n(-c2nc(Nc3ccc(Cl)cc3)nc(Nc3ccc(Cl)cc3)n2)n1`, the “% Inhibition” value is recorded as 44% and the Z score is listed as -7.01.
In the same order, the values of `CN1C(=O)CN(C(=O)C2CC=CC2)c2ccccc21` are 3% and -0.55.
As to `CCCn1nc(C2CCOCC2)nc1[C@H](O)C1CCCCC1`, the “% Inhibition” value was determined as 6% and the Z score is -0.83.
In the same order, the values of `COc1ccc(Cl)cc1N1CC[C@H](NC(=O)c2cc(C)n[nH]2)C1` are -2% and 0.27.
The matching figures for `CC1(C)CC[C@H](CCNC(=O)Cn2nnc3c2CCCC3)OC1`: -8% and 1.09.
The matching figures for `CCn1cc(S(=O)(=O)N(C)C)cn1`: -4% and 0.78.
Regarding `Cc1n[nH]cc1NS(=O)(=O)c1c(C)nn(CC(C)C)c1C`, the “% Inhibition” value is -4% and the Z score came out at 0.39.
For `O=C(CCc1c[nH]c2ccccc12)N1CCC2(CC1)C[C@@H](CCO)CCO2`, the “% Inhibition” value was -5% and the Z score was 0.97.
The matching figures for `COC(=O)CNc1ccc(OC)cc1C(=O)OC`: -40% and 4.71.
`Cc1cc(NC(=O)c2cc(O)ncn2)[nH]n1`: the “% Inhibition” value is on record as -3% and the Z score was found to be 0.49.
In the case of `CCNc1ncc(CN2C[C@@H]3NC(=O)c4ncccc4OCCn4cc(nn4)CO[C@H]3C2)cn1`, the “% Inhibition” value is reported as -27% and the Z score was 3.4.
In the same order, the values of `Cc1cc(CN(C)C[C@@H]2CC=CCC2)no1` are -10% and 0.92.
The matching figures for `CCCc1nc(N2CCN(C)CC2)c2sc(=S)n(-c3ccccc3)c2n1`: -6% and 1.23.
In the same order, the values of `CCc1noc(CC)c1CNc1ncnc2onc(C)c12` are 1% and -0.08.
Turning to `CCCCN(C)CCNC(=O)N[C@H]1CCCC12CCOCC2`, the “% Inhibition” value was -8% and the Z score is given as 0.75.
Consider `O=C1c2ccccc2[C@@H](Nc2ccc3c(c2)OCCO3)N1c1ccc(Cl)cc1`, for which the “% Inhibition” value is recorded as -12% and the Z score is reported as 1.84.
The matching figures for `Cn1ncc2c(N)nc(N[C@H]3C[C@H](c4nnc(CO)n4C4CC4)C3)nc21`: 7% and -0.76.
In the case of `CCn1nccc1C(=O)N1CCc2cc(F)cnc21`, the “% Inhibition” value is listed as -7% and the Z score is reported as 1.27.
For `CCC(CC)C(=O)N1CCC(Nc2ncnc3c2cnn3C)CC1`, the “% Inhibition” value worked out at 6% and the Z score is on record as -1.12.
In the same order, the values of `CCc1ccc(CN(C)C(=O)[C@H]2CC(=O)N(C3CCCC3)C2)nc1` are -6% and 0.89.
Turning to `CC1(C)NC(=O)N(Cc2ncnn2C2Cc3ccccc3C2)C1=O`, the “% Inhibition” value is given as -2% and the Z score stood at 0.35.
As for `COc1cc(C)nc(NCCCc2nnc3ccccn23)n1`, the “% Inhibition” value was -23% and the Z score worked out at 2.67.
As for `CCN(CC)c1ccc(C(=O)N2CCC(Cc3nncn3C)CC2)cc1`, the “% Inhibition” value is -3% and the Z score amounted to 0.58.
The matching figures for `CCN=C(NCc1csc(N(C)C)n1)NCc1sccc1C`: 7% and -0.56.
The matching figures for `CC(=O)c1c(O)cc(C)n(C2CCCCC2)c1=O`: -7% and 1.41.
In the same order, the values of `CCN(C(=O)CCCOc1ccccc1)c1ccccc1C` are -14% and 1.88.
`Cc1nn(C)c(N)c1C(=O)N(C1CCC1)C1CCC1`: the “% Inhibition” value amounted to 33% and the Z score is listed as -4.79.
The matching figures for `CCCc1nc(-c2ccccc2)oc1CC(=O)Nc1ccc(Br)cc1F`: 2% and -0.42.
The matching figures for `CC(C)[C@H](NS(=O)(=O)c1cccnc1)c1ncnn1C`: -5% and 0.74.
As for `CCN(Cc1noc(C)n1)C(=O)Nc1cc(N2CCOCC2)ccc1Cl`, the “% Inhibition” value was determined as 6% and the Z score was -1.02.
As for `CNC(=O)CN(C(=O)OC(C)(C)C)[C@H]1CCCC[C@@H]1NS(=O)(=O)C1CC1`, the “% Inhibition” value was -5% and the Z score came to 0.66.
In the same order, the values of `Cc1nc(C(C)(C)NC(=O)c2ccc(-c3ccccc3F)o2)no1` are -10% and 1.39.
As to `Cc1c[nH]nc1C(=O)N(C)[C@H]1CCN(C(C)C)C1`, the “% Inhibition” value is reported as 4% and the Z score is listed as -0.73.
In the same order, the values of `CC(=O)Nc1ccc(NC(=O)C2CCN(S(=O)(=O)c3cc4c(cc3C)NC(=O)CO4)CC2)cc1` are 1% and -0.16.
The matching figures for `CS(=O)(=O)NC[C@H]1CCCN(c2nnc(C(F)(F)F)s2)C1`: -3% and 0.47.
The matching figures for `Cc1ccc(S(=O)(=O)N2CCCC(=O)c3ccccc32)cc1`: 37% and -4.8.
With `CCOC(=O)c1ccc(NC(=O)CC2CCC2)cn1`, the “% Inhibition” value is given as 3% and the Z score was -0.29.
In the same order, the values of `C[C@H](Nc1ccc(F)cc1C#N)c1cccc(-n2cncn2)c1` are 3% and -0.3.
With `O=C(N[C@@H]1C[C@@H](CO)OC1=O)OCc1ccccc1`, the “% Inhibition” value stood at 11% and the Z score is listed as -1.69.
As to `Cc1ccc(C)c(CN2CCC(CNC(=O)c3nc(-c4ccc(N(C)C)cc4)no3)CC2)c1`, the “% Inhibition” value is reported as -17% and the Z score is recorded as 1.7.
Take `CCc1ccccc1CN1CCN(Cc2ccncc2)[C@@H]2CS(=O)(=O)C[C@@H]21`: the “% Inhibition” value is 1% and the Z score is -0.19.
The matching figures for `FC(F)(F)c1nccc(NCCc2cccs2)n1`: -8% and 0.81.
The matching figures for `Cc1nc(N2CCCC2)c2c(C(=O)Nc3ccc(C(C)C)cc3)c(C)oc2n1`: 0% and 0.03.
The matching figures for `CCN1CC(=O)N[C@@H]1c1ccc(C)s1`: -4% and 0.71.
With `COC(=O)[C@@H](NC(=O)Cc1cc(C)[nH]n1)C(C)(C)C`, the “% Inhibition” value was -8% and the Z score is listed as 1.05.
Take `O=C(N[C@H]1CC12CCN(C(=O)C1CCOCC1)CC2)c1ccccc1`: the “% Inhibition” value is on record as -8% and the Z score is 1.
For the compound `COc1cc(C)cc(OC)c1[C@H](C(=O)O)N(C)CCc1cnn(C)c1`, the “% Inhibition” value is on record as -12% and the Z score came to 2.37.
The matching figures for `O=C(c1c[nH]cn1)N1CC[C@@]2(CCCN(CC3CCCCC3)C2=O)C1`: -4% and 0.55.
The matching figures for `CC1CC2CCCCC2N1C(=O)c1ccon1` (stereo not given): -7% and 0.89.
On to `O=C(c1[nH]nc(C2CC2)c1Cl)N1CCN(S(=O)(=O)c2ccc3ccccc3c2)CC1`, for which the “% Inhibition” value is recorded as -15% and the Z score is recorded as 2.52.
In the same order, the values of `CN(CCCc1nccn1C)C(=O)c1ccc(-c2ccncc2F)cc1` are -26% and 2.8.
In the same order, the values of `CC(=O)C(=O)N1CC(=O)N(c2ccccc2-c2ccccc2)C[C@@H]1Cc1ccccc1` are -6% and 0.64.
As to `C#CCCC1(CCC(=O)N2CC[C@H](n3cc(Cl)cn3)C2)N=N1`, the “% Inhibition” value is given as -5% and the Z score is reported as 0.71.
